Measured values from the supplement of paper PMC8728848.
This is one part of the list.

Legend:
Experiment in all cases: glycan array binding signal (z-score within array); higher = stronger binding
Settings in all cases: glycan notation: IUPAC condensed, linker removed
[1] = biological target: GlcNAc(b1-3)[GlcNAc(b1-6)]GalNAc
Procedure, shortened: (§1)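 Columns mapping to the same glycan were averaged after glycan names were converted to IUPAC-condensed notation. The data come from 3228 arrays in the Consortium for Functional Glycomics database, limited to those with an available protein sequence. Binding is reported as a within-array Z-score averaged across arrays of one protein sequence and across linkers.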

[2] = biological target: GlcNAc(b1-4)Gal(b1-4)GlcNAc
Procedure, shortened: as §1

GlcNAc(b1-4)GlcNAc = biological target: GlcNAc(b1-4)GlcNAc
Procedure, shortened: as §1

[3] = biological target: GlcNAc(b1-4)GlcNAc(b1-4)GlcNAc
Procedure, shortened: as §1

[4] = biological target: GlcNAc(b1-4)GlcNAc(b1-4)GlcNAc(b1-4)GlcNAc(b1-4)GlcNAc
Procedure, shortened: as §1

[5] = biological target: GlcNAc(b1-4)GlcNAc(b1-4)GlcNAc(b1-4)GlcNAc(b1-4)GlcNAc(b1-4)GlcNAc
Procedure, shortened: as §1

[6] = biological target: GlcNAc(b1-4)[GlcNAc(b1-6)]GalNAc
Procedure, shortened: as §1

[7] = biological target: GlcNAc(b1-6)Gal(b1-4)GlcNAc
Procedure, shortened: as §1

GlcNAc(b1-6)GalNAc = biological target: GlcNAc(b1-6)GalNAc
Procedure, shortened: as §1

GlcNAc3Prop(b1-4)GlcNAc = biological target: GlcNAc3Prop(b1-4)GlcNAc
Procedure, shortened: as §1

Kdn(a2-3)Gal(b1-3)GlcNAc = biological target: Kdn(a2-3)Gal(b1-3)GlcNAc
Procedure, shortened: as §1

Kdn(a2-3)Gal(b1-4)GlcNAc = biological target: Kdn(a2-3)Gal(b1-4)GlcNAc
Procedure, shortened: as §1

[8] = biological target: Man(a1-2)Man(a1-2)Man(a1-3)Man
Procedure, shortened: as §1

[9] = biological target: Man(a1-2)Man(a1-2)Man(a1-6)[Man(a1-3)]Man
Procedure, shortened: as §1

Man(a1-2)Man(a1-3)Man = biological target: Man(a1-2)Man(a1-3)Man
Procedure, shortened: as §1

[10] = biological target: Man(a1-2)Man(a1-3)[Man(a1-2)Man(a1-6)]Man
Procedure, shortened: as §1

[11] = biological target: Man(a1-2)Man(a1-3)[Man(a1-2)Man(a1-6)]Man(a1-6)[Man(a1-2)Man(a1-2)Man(a1-3)]Man
Procedure, shortened: as §1

[12] = biological target: Man(a1-2)Man(a1-3)[Man(a1-2)Man(a1-6)]Man(a1-6)[Man(a1-2)Man(a1-2)Man(a1-3)]Man(b1-4)GlcNAc(b1-4)GlcNAc
Procedure, shortened: as §1

[13] = biological target: Man(a1-2)Man(a1-3)[Man(a1-6)]Man(a1-6)[Man(a1-2)Man(a1-3)]Man(b1-4)GlcNAc(b1-4)GlcNAc
Procedure, shortened: as §1

[14] = biological target: Man(a1-2)Man(a1-6)[Man(a1-3)]Man(a1-6)[Man(a1-2)Man(a1-2)Man(a1-3)]Man
Procedure, shortened: as §1

[15] = biological target: Man(a1-2)Man(a1-6)[Man(a1-3)]Man(a1-6)[Man(a1-2)Man(a1-2)Man(a1-3)]Man(b1-4)GlcNAc(b1-4)GlcNAc
Procedure, shortened: as §1

Man(a1-3)[Man(a1-6)]Man = biological target: Man(a1-3)[Man(a1-6)]Man
Procedure, shortened: as §1

[16] = biological target: Man(a1-3)[Man(a1-6)]Man(a1-6)[Man(a1-2)Man(a1-3)]Man(b1-4)GlcNAc(b1-4)GlcNAc
Procedure, shortened: as §1

[17] = biological target: Man(a1-3)[Man(a1-6)]Man(a1-6)[Man(a1-3)]Man
Procedure, shortened: as §1

[18] = biological target: Man(a1-3)[Man(a1-6)]Man(a1-6)[Man(a1-3)]Man(b1-4)GlcNAc(b1-4)GlcNAc
Procedure, shortened: as §1

[19] = biological target: Man(a1-3)[Man(a1-6)]Man(b1-4)GlcNAc(b1-4)GlcNAc
Procedure, shortened: as §1

Man(a1-6)Man = biological target: Man(a1-6)Man
Procedure, shortened: as §1

Man(b1-4)GlcNAc = biological target: Man(b1-4)GlcNAc
Procedure, shortened: as §1

Neu5Ac(a2-3)Gal = biological target: Neu5Ac(a2-3)Gal
Procedure, shortened: as §1

[20] = biological target: Neu5Ac(a2-3)Gal(b1-3)GalNAc
Procedure, shortened: as §1

[21] = biological target: Neu5Ac(a2-3)Gal(b1-3)GalNAc(b1-3)Gal(a1-4)Gal(b1-4)Glc
Procedure, shortened: as §1

[22] = biological target: Neu5Ac(a2-3)Gal(b1-3)GalNAc(b1-3)Gal(b1-4)GlcNAc
Procedure, shortened: as §1

[23] = biological target: Neu5Ac(a2-3)Gal(b1-3)GalNAc(b1-4)[Neu5Ac(a2-3)]Gal(b1-4)Glc
Procedure, shortened: as §1

[24] = biological target: Neu5Ac(a2-3)Gal(b1-3)GalNAc6S
Procedure, shortened: as §1

[25] = biological target: Neu5Ac(a2-3)Gal(b1-3)GlcNAc
Procedure, shortened: as §1

[26] = biological target: Neu5Ac(a2-3)Gal(b1-3)GlcNAc(b1-3)Gal(b1-3)GlcNAc
Procedure, shortened: as §1

[27] = biological target: Neu5Ac(a2-3)Gal(b1-3)GlcNAc6S
Procedure, shortened: as §1

[28] = biological target: Neu5Ac(a2-3)Gal(b1-3)[Fuc(a1-4)]GlcNAc
Procedure, shortened: as §1

B1: MUC1-SEA-mFcIgG2a (Homo sapiens), P15941 (SEA domain only) (protein)
chain: DAAQPARRAVRSSSELTSEQKLISEEDLSRLVHNGTSARATTTPASKSTPFSIPSHHSDTPTTLASHSTKTDASSTHHSTVPPLTSSNHSTSPQLSTGVSFFFLSFHISNLQFNSSLEDPSTDYYQELQRDISEMFLQIYKQGGFLGLSNIKFRPGSVVVQLTLAFREGTINVHDVETQFNQYKTEAASRYNLTISDASVSDVPFPFSAQSGSDDDDKALEPRGPTIKPCPPCKCPAPNLLGGPSVFIFPPKIKDVLMISLSPIVTCVVVDVSEDDPDVQISWFVNNVEVHTAQTQTHREDYNSTLRVVSALPIQHQDWMSGKEFKCKVNNKDLPAPIERTISKPKGSVRAPQVYVLPPPEEEMTKKQVTLTCMVTDFMPEDIYVEWTNNGKTELNYKNTEPVLDSDGSYFMYSKLRVEKKNWVERNSYSCSVVHEGLHNHHTTKSFSRTPGKHHHHH
glycan array binding signal (z-score) [1]: -0.035 | glycan array binding signal (z-score) [2]: -0.565 | glycan array binding signal (z-score) (GlcNAc(b1-4)GlcNAc): -0.16 | glycan array binding signal (z-score) [3]: -0.087 | glycan array binding signal (z-score) [4]: -0.175 | glycan array binding signal (z-score) [5]: -0.254 | glycan array binding signal (z-score) [6]: -0.223 | glycan array binding signal (z-score) [7]: -0.174 | glycan array binding signal (z-score) (GlcNAc(b1-6)GalNAc): -0.383 | glycan array binding signal (z-score) (GlcNAc3Prop(b1-4)GlcNAc): 0.085 | glycan array binding signal (z-score) (Kdn(a2-3)Gal(b1-3)GlcNAc): 0.064 | glycan array binding signal (z-score) (Kdn(a2-3)Gal(b1-4)GlcNAc): -0.262 | glycan array binding signal (z-score) [8]: 0.607 | glycan array binding signal (z-score) [9]: -0.458 | glycan array binding signal (z-score) (Man(a1-2)Man(a1-3)Man): 0.529 | glycan array binding signal (z-score) [10]: -0.325 | glycan array binding signal (z-score) [11]: -0.213 | glycan array binding signal (z-score) [12]: 0.324 | glycan array binding signal (z-score) [13]: -0.266 | glycan array binding signal (z-score) [14]: -0.315 | glycan array binding signal (z-score) [15]: -0.21 | glycan array binding signal (z-score) (Man(a1-3)[Man(a1-6)]Man): -0.497 | glycan array binding signal (z-score) [16]: 0.067 | glycan array binding signal (z-score) [17]: -0.208 | glycan array binding signal (z-score) [18]: -0.048 | glycan array binding signal (z-score) [19]: -0.235 | glycan array binding signal (z-score) (Man(a1-6)Man): -0.113 | glycan array binding signal (z-score) (Man(b1-4)GlcNAc): -0.473 | glycan array binding signal (z-score) (Neu5Ac(a2-3)Gal): -0.415 | glycan array binding signal (z-score) [20]: 0.559 | glycan array binding signal (z-score) [21]: -0.376 | glycan array binding signal (z-score) [22]: -0.254 | glycan array binding signal (z-score) [23]: -0.414 | glycan array binding signal (z-score) [24]: -0.282 | glycan array binding signal (z-score) [25]: -0.171 | glycan array binding signal (z-score) [26]: -0.152 | glycan array binding signal (z-score) [27]: 0.15 | glycan array binding signal (z-score) [28]: -0.087
